# Source: the supplement of paper PMC8728848
# This is one part of the list.
# B1: Calsepa (Calystegia sepium), P93114 (protein)
# chain: MAVPMDTISGPWGNNGGNFWSFRPVNKINQIVISYGGGGNNPIALTFSSTKADGSKDTITVGGGGPDSITGTEMVNIGTDEYLTGISGTFGIYLDNNVLRSITFTTNLKAHGPYGQKVGTPFSSANVVGNEIVGFLGRSGYYVDAIGTYNRHK
# What was measured:
# Assay in all cases: glycan array binding signal (z-score within array); higher = stronger binding
# Conditions in all cases: glycan notation: IUPAC condensed, linker removed
# [1] = molecular target: Gal(b1-4)GlcNAc(b1-2)Man(a1-3)[Man(a1-6)]Man(b1-4)GlcNAc(b1-4)GlcNAc
# Method in brief: (§1)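 Columns mapping to the same glycan were averaged after glycan names were converted to IUPAC-condensed notation. The data come from 3228 arrays in the Consortium for Functional Glycomics database, limited to those with an available protein sequence. Binding is reported as a within-array Z-score averaged across arrays of one protein sequence and across linkers.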
# [2] = molecular target: Gal(b1-4)GlcNAc(b1-2)Man(a1-6)Man(b1-4)GlcNAc(b1-4)GlcNAc
# Method in brief: as §1
# [3] = molecular target: Gal(b1-4)GlcNAc(b1-2)Man(a1-6)[GlcNAc(b1-2)Man(a1-3)]Man(b1-4)GlcNAc(b1-4)GlcNAc
# Method in brief: as §1
# [4] = molecular target: Gal(b1-4)GlcNAc(b1-2)Man(a1-6)[Man(a1-3)]Man(b1-4)GlcNAc(b1-4)GlcNAc
# Method in brief: as §1
# [5] = molecular target: Gal(b1-4)GlcNAc(b1-2)[Gal(b1-4)GlcNAc(b1-4)]Man(a1-3)[Gal(b1-4)GlcNAc(b1-2)Man(a1-6)]Man(b1-4)GlcNAc(b1-4)GlcNAc
# Method in brief: as §1
# [6] = molecular target: Gal(b1-4)GlcNAc(b1-2)[Gal(b1-4)GlcNAc(b1-4)]Man(a1-3)[Gal(b1-4)GlcNAc(b1-2)[Gal(b1-4)GlcNAc(b1-6)]Man(a1-6)]Man(b1-4)GlcNAc(b1-4)GlcNAc
# Method in brief: as §1
# [7] = molecular target: Gal(b1-4)GlcNAc(b1-2)[Gal(b1-4)GlcNAc(b1-4)]Man(a1-3)[GlcNAc(b1-4)][Gal(b1-4)GlcNAc(b1-2)Man(a1-6)]Man(b1-4)GlcNAc(b1-4)GlcNAc
# Method in brief: as §1
# [8] = molecular target: Gal(b1-4)GlcNAc(b1-2)[Gal(b1-4)GlcNAc(b1-4)]Man(a1-3)[GlcNAc(b1-4)][Gal(b1-4)GlcNAc(b1-2)[Gal(b1-4)GlcNAc(b1-6)]Man(a1-6)]Man(b1-4)GlcNAc(b1-4)GlcNAc
# Method in brief: as §1
# [9] = molecular target: Gal(b1-4)GlcNAc(b1-2)[Gal(b1-4)GlcNAc(b1-4)]Man(a1-3)[GlcNAc(b1-4)][Gal(b1-4)GlcNAc(b1-2)[Gal(b1-4)GlcNAc(b1-6)]Man(a1-6)]Man(b1-4)GlcNAc(b1-4)[Fuc(a1-6)]GlcNAc
# Method in brief: as §1
# [10] = molecular target: Gal(b1-4)GlcNAc(b1-2)[Gal(b1-4)GlcNAc(b1-6)]Man(a1-6)[Gal(b1-4)GlcNAc(b1-2)Man(a1-3)]Man(b1-4)GlcNAc(b1-4)GlcNAc
# Method in brief: as §1
# [11] = molecular target: Gal(b1-4)GlcNAc(b1-2)[Gal(b1-4)GlcNAc(b1-6)]Man(a1-6)[Gal(b1-4)GlcNAc(b1-2)Man(a1-3)]Man(b1-4)GlcNAc(b1-4)[Fuc(a1-6)]GlcNAc
# Method in brief: as §1
# [12] = molecular target: Gal(b1-4)GlcNAc(b1-2)[Gal(b1-4)GlcNAc(b1-6)]Man(a1-6)[GlcNAc(b1-4)][Gal(b1-4)GlcNAc(b1-2)Man(a1-3)]Man(b1-4)GlcNAc(b1-4)GlcNAc
# Method in brief: as §1
# [13] = molecular target: Gal(b1-4)GlcNAc(b1-3)Gal(b1-3)GlcNAc
# Method in brief: as §1
# [14] = molecular target: Gal(b1-4)GlcNAc(b1-3)Gal(b1-4)Glc
# Method in brief: as §1
# [15] = molecular target: Gal(b1-4)GlcNAc(b1-3)Gal(b1-4)GlcNAc
# Method in brief: as §1
# [16] = molecular target: Gal(b1-4)GlcNAc(b1-3)Gal(b1-4)GlcNAc(b1-3)Gal(b1-4)GlcNAc
# Method in brief: as §1
# [17] = molecular target: Gal(b1-4)GlcNAc(b1-3)Gal(b1-4)[Fuc(a1-3)GlcNAc(b1-6)]Gal(b1-4)Glc
# Method in brief: as §1
# [18] = molecular target: Gal(b1-4)GlcNAc(b1-3)Gal(b1-4)[Fuc(a1-3)]GlcNAc(b1-3)Gal(b1-4)[Fuc(a1-3)]GlcNAc
# Method in brief: as §1
# [19] = molecular target: Gal(b1-4)GlcNAc(b1-3)GalNAc
# Method in brief: as §1
# [20] = molecular target: Gal(b1-4)GlcNAc(b1-3)[Gal(b1-4)GlcNAc(b1-6)]Gal(b1-4)GlcNAc
# Method in brief: as §1
# [21] = molecular target: Gal(b1-4)GlcNAc(b1-3)[Gal(b1-4)GlcNAc(b1-6)]GalNAc
# Method in brief: as §1
# [22] = molecular target: Gal(b1-4)GlcNAc(b1-3)[GlcNAc(b1-6)]Gal(b1-4)GlcNAc
# Method in brief: as §1
binder,measurement,setting,value
B1,glycan array binding signal (z-score),[1],2.4
same,glycan array binding signal (z-score),[2],-0.242
same,glycan array binding signal (z-score),[3],1.09
same,glycan array binding signal (z-score),[4],2.92
same,glycan array binding signal (z-score),[5],-0.045
same,glycan array binding signal (z-score),[6],-0.055
same,glycan array binding signal (z-score),[7],-0.245
same,glycan array binding signal (z-score),[8],-0.219
same,glycan array binding signal (z-score),[9],-0.266
same,glycan array binding signal (z-score),[10],2.66
same,glycan array binding signal (z-score),[11],0.618
same,glycan array binding signal (z-score),[12],3.71
same,glycan array binding signal (z-score),[13],-0.253
same,glycan array binding signal (z-score),[14],-0.248
same,glycan array binding signal (z-score),[15],-0.253
same,glycan array binding signal (z-score),[16],-0.25
same,glycan array binding signal (z-score),[17],-0.266
same,glycan array binding signal (z-score),[18],-0.254
same,glycan array binding signal (z-score),[19],-0.253
same,glycan array binding signal (z-score),[20],-0.251
same,glycan array binding signal (z-score),[21],-0.269
same,glycan array binding signal (z-score),[22],-0.248
